PMC3656144
No constants are given. Whether binding was seen depends on the method and setting. In cells and extracts the contact can be indirect. Some entries that bind do so weakly or less than the wild type. Tags and fused reporters may be left off the sequences shown.

Sequences of proteins named here, by UniProt entry; tags and fusion partners are left off.
UniProt P34574: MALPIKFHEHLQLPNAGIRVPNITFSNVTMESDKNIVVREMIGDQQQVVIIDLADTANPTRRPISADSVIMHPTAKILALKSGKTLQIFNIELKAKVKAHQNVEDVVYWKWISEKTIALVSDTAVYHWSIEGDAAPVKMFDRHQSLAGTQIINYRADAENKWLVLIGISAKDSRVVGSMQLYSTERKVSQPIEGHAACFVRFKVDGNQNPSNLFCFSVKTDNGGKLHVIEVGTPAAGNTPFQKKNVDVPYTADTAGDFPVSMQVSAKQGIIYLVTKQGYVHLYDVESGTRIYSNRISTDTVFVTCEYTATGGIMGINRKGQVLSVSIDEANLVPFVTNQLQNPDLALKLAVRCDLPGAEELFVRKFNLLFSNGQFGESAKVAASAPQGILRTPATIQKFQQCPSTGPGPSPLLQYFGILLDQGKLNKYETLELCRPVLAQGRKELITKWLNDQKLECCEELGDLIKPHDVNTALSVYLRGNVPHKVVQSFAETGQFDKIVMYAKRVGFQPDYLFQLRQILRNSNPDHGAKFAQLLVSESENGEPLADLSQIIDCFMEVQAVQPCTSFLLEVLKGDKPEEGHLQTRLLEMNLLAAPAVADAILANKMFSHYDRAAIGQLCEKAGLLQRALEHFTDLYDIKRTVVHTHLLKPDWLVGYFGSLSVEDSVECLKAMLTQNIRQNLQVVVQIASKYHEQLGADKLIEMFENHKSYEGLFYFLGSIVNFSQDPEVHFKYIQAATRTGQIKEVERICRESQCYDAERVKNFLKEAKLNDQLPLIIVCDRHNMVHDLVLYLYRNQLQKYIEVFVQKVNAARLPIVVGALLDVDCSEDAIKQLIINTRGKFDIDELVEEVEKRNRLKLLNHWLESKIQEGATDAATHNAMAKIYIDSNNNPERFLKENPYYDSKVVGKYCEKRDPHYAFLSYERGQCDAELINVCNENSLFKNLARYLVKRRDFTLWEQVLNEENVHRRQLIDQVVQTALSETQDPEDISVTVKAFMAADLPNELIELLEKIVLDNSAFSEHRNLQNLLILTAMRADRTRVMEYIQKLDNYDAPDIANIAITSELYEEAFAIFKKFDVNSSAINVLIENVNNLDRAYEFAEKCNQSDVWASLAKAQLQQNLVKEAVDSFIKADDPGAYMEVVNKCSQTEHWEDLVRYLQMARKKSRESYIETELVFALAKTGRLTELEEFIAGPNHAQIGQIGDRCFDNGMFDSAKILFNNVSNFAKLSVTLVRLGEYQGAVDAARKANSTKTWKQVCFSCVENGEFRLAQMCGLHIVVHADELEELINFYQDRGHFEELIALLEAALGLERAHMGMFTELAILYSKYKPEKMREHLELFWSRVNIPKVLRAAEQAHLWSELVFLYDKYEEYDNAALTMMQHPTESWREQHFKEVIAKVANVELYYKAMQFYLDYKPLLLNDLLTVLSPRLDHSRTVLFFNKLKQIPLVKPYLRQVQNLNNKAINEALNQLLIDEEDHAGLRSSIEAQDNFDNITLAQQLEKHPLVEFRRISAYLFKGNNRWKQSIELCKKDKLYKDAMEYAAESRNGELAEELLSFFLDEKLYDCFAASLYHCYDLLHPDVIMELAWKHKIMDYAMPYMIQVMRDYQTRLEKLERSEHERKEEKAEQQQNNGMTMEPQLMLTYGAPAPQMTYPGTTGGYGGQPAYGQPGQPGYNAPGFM

B1: DPY-23::GFP (protein, UniProt P35603 1-441)
chain: MIGGLFVYNHKGEVLISRIYRDDVTRNAVDAFRVNVIHARQQVRSPVTNMARTSFFHVKRGNVWICAVTRQNVNAAMVFEFLKRFADTMQSYFGKLNEENVKNNFVLIYELLDEILDFGYPQNTDPGVLKTFITQQGVRTADAPVPVTKEEQSQITSQVTGQIGWRREGIKYRRNELFLDVIEYVNLLMNQQGQVLSAHVAGKVAMKSYLSGMPECKFGINDKITIEGKSKPGSDDPNKASRAAVAIDDCQFHQCVKLTKFETEHAISFIPPDGEYELMRYRTTKDIQLPFRVIPLVREVSRNKMEVKVVVKSNFKPSLLAQKLEVRIPTPPNTSGVQLICMKGKAKYKAGENAIVWKIKRMAGMKESQISAEIDLLSTGNVEKKKWNRPPVSMNFEVPFAPSGLKVRYLKVFEPKLNYSDHDVIKWVRYIGRSGLYETRC
B2: ^35S-labeled APA-2 (protein, UniProt Q22601 1-925)
chain: MPAVKGDGMRGLAVFISDIRNCKSKEAELKRINKELANIRSKFKGDKTLDGYQKKKYVCKLLFIFLLGNDIDFGHMEAVNLLSSNKYTEKQIGYLFISVLIEQQSDLMKLIVQGIRNDLTSRNPVHVNLALQCISNMGSREMVEAFCTDLPKLLVSGETIDFVKQSAALCILKLFRNSPDSFQPGDYASRIVHLLNDSHMGVVTSAASLIEALSKKWPEEYKGAVPLAISRLSRIVTATYTDLQDYTYYFVPAPWLCVKLLRLLQNYPPPDDPSNKARLLECLEGILNKAQDAPKSKKVQHSNAKNAVLFEAIALIIHMDSEPQLLVRACNQLGTFLSHRETNLRYLALESMCLLATSEFSHDAVKKHQDTIINSLKTERDVSVRQRAVDLLYAMCDRSNANQIVAEMLAYLETADYSIREEMVLKVAILAEKYATDYTWYVDVILKLIRIAGDYVSEEVWYRVIQIVVNREDVQGYAAKTVFEALQRPACHENMVKVGGYILGEFGNFIAGDERSTAKIQFELLHSKFHLCSITTRCLLLTTYIKFCNLFPEIKPLVQQVFQTDHNLRNPDAELQQRSIEYLQMTKLASNDVLATILEVMPAFAEKESSLLAKLKKSKPQLEEIEREEKEKRSKPTAVMSEGSTSLVDFDSTNDTTASLADVFANNSGTGLGAQGDEVEIANKDDYLKFVTKSNAILWEDDYIQIGCKLETRNNLGRLGMFYGNKTSQPFNKFTPIITCPGALAVQLQAQAKPVEPVVAAGTQVQQLINFVCVQEFQKMPIMNIKFTFTDRAGAVQNFDKNFYLPLFISKFFEPTNMTSEQFFTRWKSLGAASQEAQKIFNALSPIEHATIESRLKGFGANLLTDVDPNPDNYVCAGIIHTQTQQIGTLIRLEPNKQAKMYRLTIRSSKDTVVQTLVDLLGNQF
modifications: 35S-labeled
B3: ^35S-labeled APB-1 (protein, UniProt Q9N4F3 1-955)
chain: MTDSKYFTTTKKGEIFELKNELNSDKKEKKKEAVKKVIASMTVGKDVSALFPDVVNCMQTDNVELKKLVYLYLMNYAKSQPDLAIMAVNTFVKDCEDPNPLIRALAVRTMGCIRVEKITEYLCDPLRRCMKDEDPYVRKTAAVCVAKLHDMNPALVKEQGFVELLNDLLSDANPMVVANAVAALTEMNEQQTVIEVNSQMVNKLLTALNECTEWGQVFILDALAGYTPRDERETQNICERISPRLAHANAAVVLSTVKVLMKLIDMMPADSDFITQLTKKLAPPMVTLLSAEPEIQYVALRNINLIVQKRPDILKQEMKVFFVKYNDPIYVKMEKLDIMIRLAQQNNIAQVLSELKEYATEVDVDFVRKSVRAIGRCAIKVEASSERCVQTLLELIQTKVNYVVQEAVVVIKDIFRKYPNRYESIISALCENLDTLDEPEARASMIWIIGEYAERIDNADELLESFVEGFHDENTQVQLQLLTAVVKLFLKRPGVAQALVQRVLSLATQDSDNPDLRDRGFIYWRLLSADPAAAKNVVLTEKPLISEETDLLEPSLLEQLVCHIGTLASVYHKPPSAFIDPAKAPLRQINPIPAAKFGSSLLDTSSTPNAARNGSAAAPTVIPSQDQVIADLLSLDLNAPAASANTGAFGGAMSGTTSMGGLDDLLGLGGDPMPAAPTNSASYNPFDGLGGLGGAAPAAPPSQQPASIGGLAEIFGSGGFGGSSGITYPKELWLDASKAMGMQVEGTFVRRGGKIFMEMTITNRAMQAISGFALQFNKNSFGLIPVEQVNPAPILPNQSQNYTIACDTTGAVQVTTPLTNLQVAIKNDINAFYFATTVPLLAYFREDGQMEKREFLEEWKSIPEQNEQQFTLQNTHNMNADAICTKLQQNNIHTVARRQVDNQQLLYHSVKYTNNLNVLSELKVNSQTTSITLSLKSKNLMAIANINEVFQALLN
modifications: 35S-labeled
B4: LST-4::GFP (protein, UniProt Q8I4E2 1-566)
chain: MAQVKAEYDFQSQPNTGELSISAGEVLTVIRENIDGGWIEGRNVRGSVGLFPESYVTPYQASRPPPVLPPPLPPTSSGPPAASSRPFDDWGGASEVAAPPSYGAQHHHQPTPSVPEVTRSSYPSQNDDFDDEWTDEDDEQEPTRPNVQSSIGSNSRRDLSRSHSEHGGPDRGSNKVNKNINRFSNFVKSGVEAYVIGESKTTSQISERHEVVMNNGIIQWKPIQQYYTCIVDKPKKESKLKGLKSFIAYSITSSLTNIQRQVSRRYKHFDWLHEQLSAKYVLIPIPPLPEKQVAGRYEEDLIDHRKHILQLWVNKICRHPVLSQSEVWLHFISCTDEKDWKNGKRRAEKDEYIGGAFLNCITVPHQPLDPNNVDMQVERFQRSVKTSEEAMRVMQERMNMFQKVFAGPVKQNWQKMGSAFKTLQQSFEIDETVASRRLTEALAYTASEYHEIGQVFDAHTKNDMEPVLENLYSYKGTVQNVPDIIQVHKQAVQKFRDSEGRLSSAEAEKMKQRIDAMSYTVIAEVQHQTAEKVEDMKSTMGTYLKKQAMFYQEVATKLTSLAARYD

Assays:
[1] = biological target: T1, endogenous CED-6 (C. elegans (endogenous in whole animal lysate)) (UniProt O76337); assay: co-IP; IP of endogenous CED-1 or CED-6 with CED-1C or CED-6 antibody from whole cell lysates of N2 or GFP-fusion-expressing animals (controls: ced-1(e1735), ced-1 RNAi, ced-6 RNAi); blots with CED-1C, CED-6 and GFP antibodies
T1 sequence: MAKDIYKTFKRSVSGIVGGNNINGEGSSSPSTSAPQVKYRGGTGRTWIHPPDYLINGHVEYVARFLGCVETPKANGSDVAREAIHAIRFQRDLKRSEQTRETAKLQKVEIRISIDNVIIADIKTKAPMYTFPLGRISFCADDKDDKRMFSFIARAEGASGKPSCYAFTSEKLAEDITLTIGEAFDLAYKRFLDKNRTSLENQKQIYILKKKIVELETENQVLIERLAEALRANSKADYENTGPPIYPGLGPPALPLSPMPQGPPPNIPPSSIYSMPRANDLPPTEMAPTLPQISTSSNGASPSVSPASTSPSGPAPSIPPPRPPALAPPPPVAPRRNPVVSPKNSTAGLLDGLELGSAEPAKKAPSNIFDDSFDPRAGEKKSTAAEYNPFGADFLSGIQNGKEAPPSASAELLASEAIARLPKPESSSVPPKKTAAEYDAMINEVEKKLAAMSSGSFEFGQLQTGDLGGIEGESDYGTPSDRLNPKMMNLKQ

[2] = biological target: T2, GST-fused CED-6 (C. elegans) (UniProt O76337); assay: pull-down; GST or GST fusion (3 µg) immobilized on glutathione-Sepharose beads, incubated with 35S-labeled in vitro translated protein at 4°C for ≥4 h, washed extensively; autoradiography; only the target purified
T2 sequence: T1 sequence

[3] = biological target: T3, GST-fused CED-9 (C. elegans) (UniProt P41958); assay: as above
T3 sequence: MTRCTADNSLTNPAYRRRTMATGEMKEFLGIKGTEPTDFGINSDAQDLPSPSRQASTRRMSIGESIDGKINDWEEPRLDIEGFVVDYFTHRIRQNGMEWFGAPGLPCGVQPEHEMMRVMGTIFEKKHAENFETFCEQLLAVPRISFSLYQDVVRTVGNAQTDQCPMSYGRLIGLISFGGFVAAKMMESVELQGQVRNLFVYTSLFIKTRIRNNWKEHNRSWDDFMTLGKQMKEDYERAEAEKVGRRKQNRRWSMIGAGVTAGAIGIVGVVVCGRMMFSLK

[4] = biological target: T4, GST-fused DYN-1 (C. elegans) (UniProt P39055); assay: as above
T4 sequence: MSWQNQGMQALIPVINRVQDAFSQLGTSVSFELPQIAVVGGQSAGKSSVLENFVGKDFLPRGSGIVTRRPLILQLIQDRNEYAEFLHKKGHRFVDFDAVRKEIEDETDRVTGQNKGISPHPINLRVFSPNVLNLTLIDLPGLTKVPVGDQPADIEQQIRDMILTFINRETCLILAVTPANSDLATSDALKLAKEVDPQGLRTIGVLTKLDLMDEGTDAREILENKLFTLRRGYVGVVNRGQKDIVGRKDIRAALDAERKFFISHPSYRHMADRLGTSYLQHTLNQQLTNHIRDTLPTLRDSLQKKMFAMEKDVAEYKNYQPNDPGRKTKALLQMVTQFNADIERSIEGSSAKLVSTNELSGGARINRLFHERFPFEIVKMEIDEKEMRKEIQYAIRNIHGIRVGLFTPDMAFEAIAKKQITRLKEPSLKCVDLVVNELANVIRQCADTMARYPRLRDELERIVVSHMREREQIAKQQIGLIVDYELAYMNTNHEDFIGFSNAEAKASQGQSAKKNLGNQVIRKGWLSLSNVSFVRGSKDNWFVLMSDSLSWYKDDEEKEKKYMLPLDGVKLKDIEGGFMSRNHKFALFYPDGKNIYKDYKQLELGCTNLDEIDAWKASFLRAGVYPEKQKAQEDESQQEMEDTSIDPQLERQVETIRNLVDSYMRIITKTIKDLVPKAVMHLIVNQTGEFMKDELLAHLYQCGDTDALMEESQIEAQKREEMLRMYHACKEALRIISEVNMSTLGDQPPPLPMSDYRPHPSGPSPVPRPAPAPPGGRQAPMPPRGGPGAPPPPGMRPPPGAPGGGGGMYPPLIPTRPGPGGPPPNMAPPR

[5] = biological target: T5, GST-fused LST-4 (C. elegans) (UniProt Q8I4E2); assay: as above
T5 sequence: B4 chain

[6] = biological target: T6, GST-fused intracellular region of CED-1 (CED-1C, amino acids 933–1111) (C. elegans) (UniProt Q9XWD6); assay: as above
T6 sequence: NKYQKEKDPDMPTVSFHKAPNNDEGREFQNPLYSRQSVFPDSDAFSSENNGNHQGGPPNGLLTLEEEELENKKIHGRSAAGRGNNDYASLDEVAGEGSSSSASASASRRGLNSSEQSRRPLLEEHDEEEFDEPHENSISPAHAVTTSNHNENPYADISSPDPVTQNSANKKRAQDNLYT

| binding [1] | binding [2] | binding [3] | binding [4] | binding [5] | binding [6] | Molecule |
| --- | --- | --- | --- | --- | --- | --- |
| binds | – | – | – | – | – | GFP::CHC-1 (from UniProt P34574 1-1681) |
| binds | – | – | – | – | – | B1 |
| – | binds | no binding | binds | binds | binds | B2 |
| – | binds | no binding | binds | binds | no binding | B3 |
| no binding | – | – | – | – | – | B4 |
